Measurements taken from patent US20250297021A1 (SHANDONG SIMCERE BIOPHARMACEUTICAL CO NO 1, published 2025).

Tests used:
[1] = molecular target: T1, BCMA expressed endogenously on U266 and H929 cells (UniProt Q02223 1-184, limits assumed); assay: FACS on H929 cells
T1 construct: whole, on cells; The cell line (U266 or H929) is named under assay in each row; also called B cell maturation antigen; CD269
T1 sequence (looked up): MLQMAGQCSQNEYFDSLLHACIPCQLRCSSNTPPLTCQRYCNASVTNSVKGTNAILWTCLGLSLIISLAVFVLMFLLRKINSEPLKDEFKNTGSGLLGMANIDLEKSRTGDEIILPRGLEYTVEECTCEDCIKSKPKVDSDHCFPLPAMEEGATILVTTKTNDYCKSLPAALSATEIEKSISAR
Experimental: (§1) The desired cells were scale-up cultured in T-75 cell culture flasks to the logarithmic growth phase, and the cells were pipetted into a single cell suspension. After the cells were counted, the cells were centrifuged and the cell pellet was resuspended in FACS buffer (PBS+2% fetal calf serum) to 2×10⁶ cells per ml, and the suspension was added to the 96-well FACS reaction plate at 50 μl per well, then the sample to be tested of the chimeric antibody was added at 50 μl per well and the mixture was incubated at 4° C. for 1 h. The obtained mixture was centrifuged and washed 3 times with a PBS buffer. […] The obtained mixture was centrifuged and washed 3 times with a PBS buffer. 100 μl of the mixture was taken for detection and result analysis by FACS (FACS Canto™, purchased from BD Company). Data analysis was performed by software (FlowJo) to obtain the mean fluorescence intensity (MFI) of the cells. Then, a software (GraphPad Prism8) was used for analysis, data fitting and EC50 calculation. The results are shown in Table 10 and FIGS. 10A-10B, FIGS. 11A-11B, and FIGS. 12A-12B. All seven chimeric antibodies bind to three types of BCMA-expressing endogenous cells.
(§2) The specific method was the same as that in Example 5 (C). First, the binding of humanized antibodies to U266 cells was detected. Based on the results, some humanized antibodies were selected and tested for binding to H929 cells. The remaining humanized antibodies were not tested for binding to H929 cells by FACS (indicated by “/” in the table). All humanized antibodies bind to U266 cells, and all humanized antibodies that bind to the H929 cell in the test bind to H929 cells.

[2] = molecular target: T1, BCMA expressed endogenously on U266 and …; assay: FACS on U266 cells
Experimental: as §1, §2

B1: BCMA-07 VL1VH3 (Fc fusion)
scFv: EVQLVQSGAEVKKPGSSVKVSCKASGYTFTDYWTHWVRQAPGQGLEWIGYINHGSGYTKYNQKFKDRATLTADKSTSTAYMELSSLRSEDTAVYYCARLTGSYYFDYWGQGTTVTVSSGGGGSGGGGSGGGGSDIQMTQSPSSLSASVGDRVTITCSASSSVSYMHWYQQKPGKSPKRLIYDTSKLASGVPSRFSGSGSGTEFTLTISSLQPEDFATYYCQQWSSNPLTFGQGTKLEIK[human IgG1 Fc with C220S (EU numbers) not spelt out]
notes: humanized scFv-Fc
EC50 [1]: 0.0559 µM
Maximum mean fluorescence intensity [1]: 14500
EC50 [2]: 0.061 µM
Maximum mean fluorescence intensity [2]: 1420

B2: BCMA-07 VL4VH3 (Fc fusion)
scFv: EVQLVQSGAEVKKPGSSVKVSCKASGYTFTDYWTHWVRQAPGQGLEWIGYINHGSGYTKYNQKFKDRATLTADKSTSTAYMELSSLRSEDTAVYYCARLTGSYYFDYWGQGTTVTVSSGGGGSGGGGSGGGGSQIQMTQSPSSLSASVGDRVTITCSASSSVSYMHWYQQKPGTSPKRWIYDTSKLASGVPSRFSGSGSGTEFTLTISSLQPEDFATYYCQQWSSNPLTFGQGTKLEIK[human IgG1 Fc with C220S (EU numbers) not spelt out]
notes: humanized scFv-Fc
EC50 [1]: 0.0231 µM
Maximum mean fluorescence intensity [1]: 19900
EC50 [2]: 0.0401 µM
Maximum mean fluorescence intensity [2]: 2700

B3: BCMA-07 VL3VH3 (Fc fusion)
scFv: EVQLVQSGAEVKKPGSSVKVSCKASGYTFTDYWTHWVRQAPGQGLEWIGYINHGSGYTKYNQKFKDRATLTADKSTSTAYMELSSLRSEDTAVYYCARLTGSYYFDYWGQGTTVTVSSGGGGSGGGGSGGGGSQIQMTQSPSSLSASVGDRVTITCSASSSVSYMHWYQQKPGKSPKRWIYDTSKLASGVPSRFSGSGSGTEFTLTISSLQPEDFATYYCQQWSSNPLTFGQGTKLEIK[human IgG1 Fc with C220S (EU numbers) not spelt out]
notes: humanized scFv-Fc
Maximum mean fluorescence intensity [1]: 52900
Maximum mean fluorescence intensity [2]: 24800

B4: BCMA-07 VL2VH3 (Fc fusion)
scFv: EVQLVQSGAEVKKPGSSVKVSCKASGYTFTDYWTHWVRQAPGQGLEWIGYINHGSGYTKYNQKFKDRATLTADKSTSTAYMELSSLRSEDTAVYYCARLTGSYYFDYWGQGTTVTVSSGGGGSGGGGSGGGGSDIQMTQSPSSLSASVGDRVTITCSASSSVSYMHWYQQKPGKSPKRWIYDTSKLASGVPSRFSGSGSGTEFTLTISSLQPEDFATYYCQQWSSNPLTFGQGTKLEIK[human IgG1 Fc with C220S (EU numbers) not spelt out]
notes: humanized scFv-Fc
EC50 [1]: 0.0282 µM
Maximum mean fluorescence intensity [1]: 20600
EC50 [2]: 0.376 µM
Maximum mean fluorescence intensity [2]: 4160

B5: BCMA-07 VL3VH2 (Fc fusion)
scFv: EVQLVQSGAEVKKPGSSVKVSCKASGYTFTDYWTHWVRQAPGQGLEWMGYINHGSGYTKYNQKFKDRVTLTADKSTSTAYMELSSLRSEDTAVYYCARLTGSYYFDYWGQGTTVTVSSGGGGSGGGGSGGGGSQIQMTQSPSSLSASVGDRVTITCSASSSVSYMHWYQQKPGKSPKRWIYDTSKLASGVPSRFSGSGSGTEFTLTISSLQPEDFATYYCQQWSSNPLTFGQGTKLEIK[human IgG1 Fc with C220S (EU numbers) not spelt out]
notes: humanized scFv-Fc
Maximum mean fluorescence intensity [1]: 73200
Maximum mean fluorescence intensity [2]: 33500

B6: BCMA-05 VL1VH1 (Fc fusion)
scFv: EVQLVQSGAEVKKPGSSVKVSCKASGYMFTDHTFHWVRQAPGQGLEWMGYIYPRDDNTKYNEKFKGRVTITADKSTSTAYMELSSLRSEDTAVYYCARAGYYGSSHAMDYWGQGTTVTVSSGGGGSGGGGSGGGGSDIQMTQSPSSLSASVGDRVTITCKASQDVSTAVAWYQQKPGKSPRLLIYSASSRYTGVPSRFSGSGSGTDFTFTISSLQPEDIATYYCQQLYSTPWTFGGGTKVEIK[human IgG1 Fc with C220S (EU numbers) not spelt out]
notes: humanized scFv-Fc
EC50 [1]: 0.00879 µM
Maximum mean fluorescence intensity [1]: 14700
EC50 [2]: 0.0132 µM
Maximum mean fluorescence intensity [2]: 2550

B7: BCMA-05 VL2VH3 (Fc fusion)
scFv: EVQLVQSGAEVKKPGSSVKVSCKASGYMFTDHTFHWMRQAPGQGLEWMGYIYPRDDNTKYNEKFKGRVTITADKSTSTAYMELSSLRSEDTAVYYCARAGYYGSSHAMDYWGQGTTVTVSSGGGGSGGGGSGGGGSDIQMTQSPSSLSASVGDRVTITCKASQDVSTAVAWYQQKPGKSPRLLIYSASSRYTGVPDRFSGSGSGTDFTFTISSLQPEDIATYYCQQLYSTPWTFGGGTKVEIK[human IgG1 Fc with C220S (EU numbers) not spelt out]
notes: humanized scFv-Fc
EC50 [1]: 0.00972 µM
Maximum mean fluorescence intensity [1]: 14700
EC50 [2]: 0.0201 µM
Maximum mean fluorescence intensity [2]: 2470

B8: BCMA-05 VL2VH2 (Fc fusion)
scFv: EGQMVQSGAEVKKPGSSVKVSCKASGYMFTDHTFHWVRQAPGQGLEWMGYIYPRDDNTKYNEKFKGRVTITADKSTSTAYMELSSLRSEDTAVYYCARAGYYGSSHAMDYWGQGTTVTVSSGGGGSGGGGSGGGGSDIQMTQSPSSLSASVGDRVTITCKASQDVSTAVAWYQQKPGKSPRLLIYSASSRYTGVPDRFSGSGSGTDFTFTISSLQPEDIATYYCQQLYSTPWTFGGGTKVEIK[human IgG1 Fc with C220S (EU numbers) not spelt out]
notes: humanized scFv-Fc
EC50 [1]: 0.00907 µM
Maximum mean fluorescence intensity [1]: 14700
EC50 [2]: 0.0181 µM
Maximum mean fluorescence intensity [2]: 2430

B9: BCMA-05 VL2VH4 (Fc fusion)
scFv: EVQLVQSGAEVKKPGSSVKVSCKASGYMFTDHTFHWVRQAPGQGLEWMGYIYPRDDNTKYNEKFKGRVTLTADKSTSTAYMELSSLRSEDTAVYYCARAGYYGSSHAMDYWGQGTTVTVSSGGGGSGGGGSGGGGSDIQMTQSPSSLSASVGDRVTITCKASQDVSTAVAWYQQKPGKSPRLLIYSASSRYTGVPDRFSGSGSGTDFTFTISSLQPEDIATYYCQQLYSTPWTFGGGTKVEIK[human IgG1 Fc with C220S (EU numbers) not spelt out]
notes: humanized scFv-Fc
EC50 [1]: 0.0112 µM
Maximum mean fluorescence intensity [1]: 13000
EC50 [2]: 0.025 µM
Maximum mean fluorescence intensity [2]: 2210

B10: BCMA-05 VL1VH3 (Fc fusion)
scFv: EVQLVQSGAEVKKPGSSVKVSCKASGYMFTDHTFHWMRQAPGQGLEWMGYIYPRDDNTKYNEKFKGRVTITADKSTSTAYMELSSLRSEDTAVYYCARAGYYGSSHAMDYWGQGTTVTVSSGGGGSGGGGSGGGGSDIQMTQSPSSLSASVGDRVTITCKASQDVSTAVAWYQQKPGKSPRLLIYSASSRYTGVPSRFSGSGSGTDFTFTISSLQPEDIATYYCQQLYSTPWTFGGGTKVEIK[human IgG1 Fc with C220S (EU numbers) not spelt out]
notes: humanized scFv-Fc
EC50 [1]: 0.00761 µM
Maximum mean fluorescence intensity [1]: 15300
EC50 [2]: 0.0112 µM
Maximum mean fluorescence intensity [2]: 2620

B11: BCMA-05 VL2VH1 (Fc fusion)
scFv: EVQLVQSGAEVKKPGSSVKVSCKASGYMFTDHTFHWVRQAPGQGLEWMGYIYPRDDNTKYNEKFKGRVTITADKSTSTAYMELSSLRSEDTAVYYCARAGYYGSSHAMDYWGQGTTVTVSSGGGGSGGGGSGGGGSDIQMTQSPSSLSASVGDRVTITCKASQDVSTAVAWYQQKPGKSPRLLIYSASSRYTGVPDRFSGSGSGTDFTFTISSLQPEDIATYYCQQLYSTPWTFGGGTKVEIK[human IgG1 Fc with C220S (EU numbers) not spelt out]
notes: humanized scFv-Fc
EC50 [1]: 0.0115 µM
Maximum mean fluorescence intensity [1]: 14500
EC50 [2]: 0.0217 µM
Maximum mean fluorescence intensity [2]: 2350

B12: BCMA-05 VL1VH4 (Fc fusion)
scFv: EVQLVQSGAEVKKPGSSVKVSCKASGYMFTDHTFHWVRQAPGQGLEWMGYIYPRDDNTKYNEKFKGRVTLTADKSTSTAYMELSSLRSEDTAVYYCARAGYYGSSHAMDYWGQGTTVTVSSGGGGSGGGGSGGGGSDIQMTQSPSSLSASVGDRVTITCKASQDVSTAVAWYQQKPGKSPRLLIYSASSRYTGVPSRFSGSGSGTDFTFTISSLQPEDIATYYCQQLYSTPWTFGGGTKVEIK[human IgG1 Fc with C220S (EU numbers) not spelt out]
notes: humanized scFv-Fc
EC50 [1]: 0.00951 µM
Maximum mean fluorescence intensity [1]: 14800
EC50 [2]: 0.0148 µM
Maximum mean fluorescence intensity [2]: 2450

B13: BCMA-05 VL1VH2 (Fc fusion)
scFv: EGQMVQSGAEVKKPGSSVKVSCKASGYMFTDHTFHWVRQAPGQGLEWMGYIYPRDDNTKYNEKFKGRVTITADKSTSTAYMELSSLRSEDTAVYYCARAGYYGSSHAMDYWGQGTTVTVSSGGGGSGGGGSGGGGSDIQMTQSPSSLSASVGDRVTITCKASQDVSTAVAWYQQKPGKSPRLLIYSASSRYTGVPSRFSGSGSGTDFTFTISSLQPEDIATYYCQQLYSTPWTFGGGTKVEIK[human IgG1 Fc with C220S (EU numbers) not spelt out]
notes: humanized scFv-Fc
EC50 [1]: 0.00778 µM
Maximum mean fluorescence intensity [1]: 15100
EC50 [2]: 0.012 µM
Maximum mean fluorescence intensity [2]: 2620
